Source: patent US20100285145A1, “GPR 119 MODULATORS” (PFIZER INC, priority 2009, published 2010)
Certain results were filed several times, with different values. This list holds those alone. The source may hold further records. Values given together seem to repeat one measurement; a mean can stand among them. Signs of the kind (2×) give the number of equal values in this list.

Biological target: T1, human GPR119 (Homo sapiens, UniProt Q8TDV5)
T1 sequence (Q8TDV5 1-335): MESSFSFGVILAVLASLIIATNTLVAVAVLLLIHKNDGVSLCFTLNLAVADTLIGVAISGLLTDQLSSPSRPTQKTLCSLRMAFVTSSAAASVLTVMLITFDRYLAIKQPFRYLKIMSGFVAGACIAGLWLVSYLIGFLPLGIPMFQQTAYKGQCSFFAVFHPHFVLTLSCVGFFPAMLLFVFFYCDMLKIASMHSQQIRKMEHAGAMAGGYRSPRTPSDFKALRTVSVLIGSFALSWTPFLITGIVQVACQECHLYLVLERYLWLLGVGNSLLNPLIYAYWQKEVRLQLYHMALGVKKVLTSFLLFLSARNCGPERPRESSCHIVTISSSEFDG
Assay: cAMP HTRF functional assay (hGPR119 HEK-CRE beta-lactamase cells)
Type: cell-based
Set-up: host or cells: HEK293-CRE beta-lactamase
Details: percent of maximal activity relative to standard GPR119 agonist at 10 micromolar
Procedure: GPR119 agonist activity was also determined with a cell-based assay utilizing an HTRF (Homogeneous Time-Resolved Fluorescence) cAMP detection kit (cAMP dynamic 2 Assay Kit; Cis Bio cat #62AM4PEC) that measures cAMP levels in the cell. The method is a competitive immunoassay between native cAMP produced by the cells and the cAMP labeled with the dye d2. The tracer binding is visualized by a Mab anti-cAMP labeled with Cryptate. The specific signal (i.e. energy transfer) is inversely proportional to the concentration of cAMP in either standard or sample. […]
Varying concentrations of each compound to be tested were diluted in assay buffer containing 3-isobutyl-1-methylxanthin (IBMX; Sigma cat #15879) and added to the assay plate wells in a volume of 2 microL (final IBMX concentration was 400 microM and final DMSO concentration was 0.58%). […] The plates were then incubated at room temperature and after 60 minutes, changes in the HTRF signal were read with an Envision 2104 multilabel plate reader using excitation of 330 nm and emissions of 615 and 665 nm. Raw data were converted to nM cAMP by interpolation from a cAMP standard curve (as described in the manufacturer's assay protocol) and EC50 determinations were made from an agonist-response curves analyzed with a curve fitting program using a 4-parameter logistic dose response equation.

CC(C)OC(=O)N1C[C@H]2COC[C@@H](C1)[C@H]2Oc1ncnc(N2CCc3cc(S(C)(=O)=O)ccc32)c1C#N [Example 5]
Intrinsic Activity (Human cAMP): 103, 98.6, 100 (2×), 82, 98.1% [lines of one column]
